Out of some 350,000 compounds screened, about 260 (0.074%) were called active. Inconclusive results, whose numbers are uncertain, are shown with a selection of clear calls. The call rests on the fitted dose curve; in most records, active means well fitted inhibition curve with a large enough effect; inconclusive means small, poorly fitted or top-dose-only effect; inactive means no such curve, though single readings can be large or run the other way. Where the call is inconclusive, the potency comes from a doubtful curve fit.
molecular target: Ferritin light chain (Equus caballus) (UniProt P02791); assay: qHTS Assay for Identification of Novel General Anesthetics; conditions: apoferritin/1-aminoanthracene competitive binding, fluorescence; activity change, negative = displacement: at 77.5 µM (top of the series); further: nearly all actives have a fitted effect of over 20% in size
Outline: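 Probe: 1-aminoanthracene (50% saturated, PBS). Protein: horse-spleen apoferritin, 10 uM. Incubation: 10 min, room temperature. Detection: 380 nm excitation, 535 nm emission. Analysis: normalized response, four-parameter Hill.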
On the % scale 0 is the no-effect control and ±100 the full control effect; potency means the concentration at half of the fitted maximal effect; tags describe the fitted curve by direction and shape.

Sequence of UniProt P02791 (P02791 whole entry, looked up): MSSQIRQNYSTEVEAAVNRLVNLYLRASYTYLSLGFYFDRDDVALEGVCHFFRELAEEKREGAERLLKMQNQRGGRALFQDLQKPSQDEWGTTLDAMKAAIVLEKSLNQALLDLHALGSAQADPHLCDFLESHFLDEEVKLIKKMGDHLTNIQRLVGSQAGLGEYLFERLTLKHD

| Structure (SMILES) | Potency | activity change, negative = displacement |
| --- | --- | --- |
| CC1N(O)C(c2ccc(Cl)cc2Cl)N(O)C1(C)C (configuration not stated) | inconclusive: 15.8 µM [inhibitor, partial curve] | – |
| Cc1cccc2c1Sc1ccccc1CC2=O | inconclusive: 25.1 µM [inhibitor, partial curve] | – |
| CCOC(=O)C1CCN(C(c2cc3ccc(C)cc3[nH]c2=O)c2nnnn2C2CCCCC2)CC1 (configuration not stated) | inconclusive: 14.1 µM [inhibitor, partial curve] | – |
| CCCCOC(=O)NC(NCC(O)c1ccccc1)(C(F)(F)F)C(F)(F)F (configuration not stated) | inconclusive: 22.4 µM [inhibitor, partial curve] | – |
| O=C1c2ccccc2-c2onc3c(Oc4ccccc4)cc(O)c1c23 | – | inactive: -14.2% |
| COc1ccc(S(=O)(=O)N=C2C=C(C)C(=O)C(C)=C2)cc1 | inconclusive: 22.4 µM [inhibitor, partial curve] | – |
| COc1cc(CNn2nnnc2N)ccc1OCc1c(Cl)cccc1Cl | inconclusive: 22.4 µM [inhibitor, partial curve] | – |
| O=C1c2ccccc2C(=O)c2c1cccc2N(CCO)CCO | – | inactive: -16.2% |
| O=C(CSc1nc(-c2ccccc2)cn1-c1ccccc1F)Nc1ccc(F)cc1 | – | inactive: 33% |
| CCOC(=O)CSc1nnc(NC(=O)c2cc([N+](=O)[O-])cc([N+](=O)[O-])c2)s1 | – | inactive: -0.63% |
| CCOC(=O)C1=C(C)OC(N)=C(C#N)C1c1cc2c(cc1Br)OCO2 (configuration not stated) | inconclusive: 39.8 µM [inhibitor, partial curve] | – |
| CCC(C)N(NC(C)=O)c1nc(Cl)nc(NC(C)C)n1 (configuration not stated) | – | inactive: -11.2% |
| CC(C)[C@H](NC(=O)N1CCn2c1nc1ccccc12)C(=O)N[C@H](C(=O)O)c1ccccc1 | – | inactive: -4.83% |
| O=C(Cn1nc(-c2ccc(Cl)cc2)c2ccccc2c1=O)Nc1cccc(Br)c1 | inconclusive: 3.16 µM [inhibitor, full curve, poor fit] | – |
| Cc1ccc(C(=O)N/C(=C/c2ccc(-c3cccc([N+](=O)[O-])c3)o2)C(=O)NC(C)C)cc1 | inconclusive: 3.98 µM [inhibitor, partial curve] | – |
| Cc1nc2ccc(S(=O)(=O)N(C)CC(=O)Nc3ccc(C(C)C)cc3)cc2s1 | inconclusive: 2.82 µM [inhibitor, full curve] | – |
| CC1CCN(C2(O)C(=O)Nc3ccc(Br)cc32)CC1 (configuration not stated) | inconclusive: 14.1 µM [inhibitor, partial curve] | – |
| O=C(c1ccco1)N1CCN(Cc2c(F)cccc2Cl)CC1 | – | inactive: -8.84% |
| CCn1c(=O)c(=O)n(CC)c2cc(S(=O)(=O)N3CCc4ccccc43)ccc21 | inconclusive: 50.1 µM [inhibitor, single point] | – |
| O=C(NC(=S)Nc1nc(-c2cccc([N+](=O)[O-])c2)cs1)c1ccccc1Cl | – | inactive: -2.99% |
| CCn1c(SCC(=O)c2ccc3ccccc3c2)nnc1-c1ccco1 | inconclusive: 50.1 µM [inhibitor, single point] | – |
| Cc1ccc(NS(=O)(=O)c2cc3c(cc2C)NC(=O)CO3)cc1 | inconclusive: 17.8 µM [inhibitor, partial curve] | – |
| CCOc1ccc(CN2C(=O)c3ccccc3Sc3ccc(C(=O)NCc4ccco4)cc32)cc1 | – | inactive: -1.97% |

| Structure (SMILES) | Potency | activity change, negative = displacement |
| --- | --- | --- |
| CCOC(=O)C1CCCN(C/C=C/c2ccccc2[N+](=O)[O-])C1 (configuration not stated) | inconclusive: 28.2 µM [inhibitor, partial curve] | – |
| COc1ccc(C2=CC(=O)OC3(CCCCC3)O2)cc1 | inconclusive: 20 µM [inhibitor, partial curve] | – |
| C#C[C@]1(O)CC[C@H]2[C@H]3CCc4cc(O)ccc4[C@@H]3CC[C@@]21C | – | inactive: -14.1% |
| COc1ccc(NC(=O)C2=CC(c3ccco3)=NS(=O)(=O)N2C)cc1OC | inconclusive: 25.1 µM [inhibitor, single point] | – |
| O=C(NCC1CCCO1)C(c1cccs1)N(Cc1ccccc1)C(=O)c1ccc(-c2ccccc2)[nH]1 (configuration not stated) | – | inactive: -13.6% |
| CCN(c1ccccc1)S(=O)(=O)c1nnc(NC(=O)c2ccccc2OC)s1 | inconclusive: 20 µM [inhibitor, partial curve] | – |
| Fc1ccc(Nc2ncnc3sc4c(c23)CCC4)cc1 | inconclusive: 39.8 µM [inhibitor, single point] | – |
| CCCCNC(=O)CSc1nc2nc(C)c(Cc3c(F)cccc3Cl)c(C)n2n1 | inconclusive: 25.1 µM [inhibitor, partial curve] | – |
| O=C(CCc1ccccc1)N/N=C/c1cccc([N+](=O)[O-])c1 | inconclusive: 31.6 µM [inhibitor, partial curve] | – |
| CCCCCn1c(-c2ccco2)nc2nc3ccccc3nc21 | – | inactive: 62.7% |
| COC(=O)c1ccc(C2c3c(n[nH]c3C)C(=O)N2c2ccc(C)cc2)cc1 (configuration not stated) | inconclusive: 22.4 µM [inhibitor, partial curve] | – |
| C=C(C)COc1ccc(-c2ncncc2Oc2ccc(OC)cc2)c(O)c1 | inconclusive: 15.8 µM [inhibitor, partial curve] | – |
| O=[N+]([O-])c1ccc(/C=N/Nc2nc(N3CCCC3)nc(N3CCCC3)n2)o1 | inconclusive: 44.7 µM [inhibitor, partial curve] | – |
| Cc1cc(Cl)c2c(c1)[C@]1(C(=O)N2)[C@@H]2C(=O)N(Cc3ccccc3)C(=O)[C@@H]2[C@@H]2CCCN21 | inconclusive: 7.08 µM [inhibitor, full curve] | – |
| CC(C)C(=O)N1CCC(c2nc(-c3ccc(S(=O)(=O)N4CCN(C)CC4)cc3)no2)CC1 | inconclusive: 100 µM [inhibitor, partial curve, poor fit] | – |
| COc1ccc(-[n+]2c(C)cc(/C=C3\Sc4ccccc4N3C)cc2C)cc1 | inconclusive: 28.2 µM [inhibitor, partial curve] | – |
| Cc1ccc(NC(=O)CN2C(=O)NC(C)(c3ccc(Cl)cc3)C2=O)cc1 (configuration not stated) | inconclusive: 35.5 µM [inhibitor, single point] | – |
| COc1cc(C(=O)NCC(=O)N/N=C\C(C)=C/c2ccccc2)cc(OC)c1OC | inconclusive: 35.5 µM [inhibitor, single point] | – |
| CSc1ccc(CNC(=O)Cn2nc(N3CCN(c4ccccc4)CC3)ccc2=O)cc1 | inconclusive: 22.4 µM [inhibitor, partial curve] | – |
| COCCNC(=S)N/N=C(\C)c1ccc(OC)cc1 | – | inactive: -2.59% |
| COc1cccc(NC(=O)CSc2nnc(-c3cccc(OC)c3)o2)c1 | inconclusive: 35.5 µM [inhibitor, partial curve] | – |
| CCc1ccc(C(=O)COC(=O)CNC(=O)Cc2ccccc2)cc1 | inconclusive: 17.8 µM [inhibitor, partial curve] | – |
| COc1ccc(CCNC(=O)Cn2cnc3scc(-c4ccccc4)c3c2=O)cc1OC | inconclusive: 25.1 µM [inhibitor, partial curve] | – |

| Structure (SMILES) | Potency | activity change, negative = displacement |
| --- | --- | --- |
| COc1ccc(NC(=O)C2CCC(N3C(=O)C4CCCCC4C3=O)CC2)cc1 (configuration not stated) | inconclusive: 28.2 µM [inhibitor, single point] | – |
| O=C(COc1ccc(-c2ccccc2)cc1)NNC(=O)NC1CCCCC1 | inconclusive: 3.55 µM [inhibitor, full curve] | – |
| COC(=O)C1C2CCC(C2)C1C(=O)OCC(=O)c1ccc(C)cc1 (configuration not stated) | inconclusive: 25.1 µM [inhibitor, single point] | – |
| COc1ccc(OC)c(NC(=O)c2cccc3c2C(=O)N(C2CCCCC2)C3)c1 | inconclusive: 5.62 µM [inhibitor, full curve, poor fit] | – |
| Cc1cccc(C(=O)Oc2ccc(/C=N/NC(=O)c3cc(O)cc(O)c3)cc2)c1 | inconclusive: 39.8 µM [inhibitor, single point] | – |
| N#Cc1nc(-c2ccco2)oc1N1CCN(C(c2ccccc2)c2ccccc2)CC1 | – | inactive: -14.7% |
| COc1cccc(CN(C)C(=O)c2cc(-c3cccs3)nc3ccccc23)c1 | – | inactive: -19.9% |
| Cc1cc(=O)[nH]c(SCC(=O)N2c3ccccc3CC2C)n1 (configuration not stated) | active: 14.1 µM | – |
| c1ccc(-n2nnnc2SCc2cccc3nsnc23)cc1 | inconclusive: 31.6 µM [inhibitor, partial curve] | – |
| Cc1c(C(=O)N(CCc2ccccc2)Cc2ccccc2)cccc1[N+](=O)[O-] | inconclusive: 28.2 µM [inhibitor, partial curve] | – |
| Cc1ccc2c(=O)cc(C(=O)NCc3ccccc3)oc2c1 | – | inactive: -7.08% |
| O=C(CSc1ccccn1)Nc1ccc2ccccc2c1 | inconclusive: 28.2 µM [inhibitor, partial curve] | – |
| O=C(COc1ccc2ccccc2c1)NCCc1ccc2c(c1)OCCO2 | inconclusive: 44.7 µM [inhibitor, single point] | – |
| COC(=O)c1sccc1NC(=O)c1cccc(OC)c1 | inconclusive: 35.5 µM [inhibitor, partial curve] | – |
| CCOc1ccc(-c2nc3n(c(=O)c2C#N)CCCS3)cc1 | – | inactive: -13.9% |
| O=[N+]([O-])c1ccc(N/N=C/c2ccccc2)c(F)c1 | inconclusive: 28.2 µM [inhibitor, single point] | – |
| O=[N+]([O-])c1ccc(Sc2ccccc2Cl)nc1 | inconclusive: 31.6 µM [inhibitor, partial curve] | – |
| O=c1cc(Cl)[nH]c(=O)n1CCNc1ncc(C(F)(F)F)cc1Cl | – | inactive: 3.73% |
| CCOC(=O)c1sc(=S)n(C)c1NC(=O)c1ccc(C(C)(C)C)cc1 | inconclusive: 22.4 µM [inhibitor, single point] | – |
| COc1cc(CNCCSc2nnnn2C)ccc1OCc1ccc(Cl)cc1Cl | inconclusive: 12.6 µM [inhibitor, partial curve] | – |
| O=C1Nc2ccc(Br)cc2/C1=C/C1CC=CCC1 (configuration not stated) | inconclusive: 25.1 µM [inhibitor, partial curve] | – |

Reference: PubChem BioAssay AID485281 (National Center for Advancing Translational Sciences (NCATS), 2010)
